Test results as given in the RNAGym collection of RNA variant scans (doi:10.1093/nar/gkz1192).
The source gives no read counts; variants with many changes may rest on few reads.

B1: CPEB3 Ribozyme (parent)
chain: UAACAGGGGGCCACAGCAGAAGCGUUCACGUCGCAGCCCCUGUCAGAUUCUGGUGAAUCUGCGAAUUCUGCUGUAUAUCUC

Variants of: B1
Experiment: self-cleavage, relative activity (ratio to wild type); higher = more cleavage; in vitro, sequencing
Summary of the method: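 Barcoded CPEB3 ribozyme mutants, produced by rounds of error-prone PCR, self-cleaved while being transcribed with T7 RNA polymerase for 5 hours at 37°C and during a subsequent 15 min DNase I step before EDTA was added. Sequencing of template-switched cDNA on Illumina gave cleaved and total reads, and DNA sequencing assigned barcodes to variants. Each variant's relative activity is its cleaved/total read fraction divided by the unmutated ribozyme's fraction, averaged across three batches. A variant needed a minimum of 5 reads.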

Variant | self-cleavage
A15G A20U C32U A35U | 0.07
A15G A20U G30U U43C U49C U51C C62U | 0.05
A15G A20U G53A A56G U69A U72C | 0.1
A15G A20U U25C A28G U67C | 0.06
A15G A20U U25C A45G U51C C71A U72A | 0.12
A15G A20U U25C A65G U69A U78C | 0.19
A15G A20U U26C A75G | 0.31
A15G A20U U41A A45G U54A U66C U69A | 0.35
A15G A20U U43C G63U U78C | 0.22
A15G A20U U48C A57G A77C | 0.09
A15G A20U U49C U60A | 0.14
A15G A20U U69C | 0.19
A15G A20U U80A | 0.28
A15G A21C U26C A56G | 0.31
A15G A21G A28G U48A | 0.22
A15G A21G A35G C59G U60A | 0.33
A15G A21G A45G U54G U58G | 0
A15G A21G A65G U67C A75U | 0.2
A15G A21G A75U | 0.82
A15G A21G C23U A28G | 0.36
A15G A21G C27U A75G | 0.47
A15G A21G C34U A45G | 0.21
A15G A21G C40U U41C U43C A57G U78C | 0.25
A15G A21G C44A | 0.18

Variant | self-cleavage
A15G A21G G30A A56G U58C | 0.2
A15G A21G G30A U31C | 0.09
A15G A21G G30A U41A U58C | 0.18
A15G A21G G30A U41C U58C | 0.23
A15G A21G U25C | 0.83
A15G A21G U25C C27A U58C U66C | 0.09
A15G A21G U25C U51C A57G U69C | 0.33
A15G A21G U26A | 0.31
A15G A21G U26A A45U U60C A64G | 0.09
A15G A21G U26A A64G | 0.27
A15G A21G U31C | 0.41
A15G A21G U43A A57G U69G U80C | 0.09
A15G A21G U48C C62A | 0.2
A15G A21G U48G U60C | 0.22
A15G A21G U51A A56U U60C U72C | 0.13
A15G A21G U66A A77U | 0.41
A15G A21G U67A | 0.38
A15G A21U A28G | 0.35
A15G A21U U25C A45G U54C U72A | 0.25
A15G A21U U25C U54C U76C | 0.19
A15G A21U U41A G52C | 0.24
A15G A21U U51C U60C U76A | 0.16
A15G A21U U80A | 0.22
A15G A28C A57G | 0.2

Variant | self-cleavage
A15G A28C C38A U43C A57U A64C | 0.08
A15G A28C G30A A57G U69C | 0.07
A15G A28C U41A C44U A56U | 0.06
A15G A28G A35G U67C C79A | 0.14
A15G A28G A35U U54C G61A | 0.12
A15G A28G A45G | 0.3
A15G A28G A56G | 0.32
A15G A28G A56G C71G | 0.23
A15G A28G A56G G61C | 0.12
A15G A28G C37U U48C U51C U67C | 0
A15G A28G C62U A65G U66C U76C | 0.11
A15G A28G U31C A35C U54A C62G G70A | 0
A15G A28G U31C C37A U54A A57G | 0.13
A15G A28G U41C U72A U80A | 0.32
A15G A28G U43C A57G G70U U72G | 0.03
A15G A28G U48C U60A U72G | 0.1
A15G A28G U54G A56U | 0.16
A15G A28G U60C A64G U69A U74A | 0.23
A15G A28U A35G | 0.37
A15G A28U A35G U41A U51C A64G | 0.05
A15G A28U A35U U41A U54C A64G | 0.14
A15G A28U A57G U72A | 0.11
A15G A28U C29U | 0.3
A15G A28U C40U A45U A47G U51A G53A | 0.07

Variant | self-cleavage
A15G A28U G33C U43C U60C | 0.12
A15G A28U G36U U41C A77U | 0.24
A15G A28U U41C U43A A64G U72C U76A | 0.27
A15G A28U U43C U72C A75G | 0.27
A15G A28U U60A | 0.05
A15G A28U U67A | 0.19
A15G A28U U78A | 0.63
A15G A28U U78C | 0.48
A15G A35G A45G A64U | 0.36
A15G A35G A45U U51C U69C U72C | 0.13
A15G A35G C62A | 0.19
A15G A35G G52U A56G U72A | 0.3
A15G A35G U43C U54A | 0.34
A15G A35G U54C | 0.44
A15G A35G U60C U76C U78C | 0.4
A15G A35U A45G G52A | 0.43
A15G A35U A47U U67C | 0.15
A15G A35U A56C | 0.24
A15G A35U A57U U69A | 0.12
A15G A35U C39A G70A U78C | 0.03
A15G A35U G42C A56G | 0.05
A15G A35U U41A U48C U80C | 0.14
A15G A35U U41A U58C A64G U80C | 0.09
A15G A35U U41C A47G U72A | 0.19

Variant | self-cleavage
A15G A35U U41C A64U | 0.18
A15G A35U U41C U49C | 0.17
A15G A35U U41G A57G A75G | 0.12
A15G A35U U43A U51A | 0.55
A15G A35U U43C A64U U69C U72C | 0.11
A15G A35U U48A | 0.2
A15G A35U U48C U80C | 0.64
A15G A35U U51C U60C U69C | 0.07
A15G A35U U54C G63U U72C | 0.89
A15G A35U U54G U67C C68A U76A | 0.11
A15G A45C U72A | 0.08
A15G A45C U80A | 0.34
A15G A45G A47U U67A | 0.21
A15G A45G G52A U54C U78C | 0.99
A15G A45G G52C A56G | 0.34
A15G A45G G52C U60C | 1.14
A15G A45G U51C A64G U66C A75U | 0.11
A15G A45G U66C | 0.54
A15G A45G U69A | 0.23
A15G A45G U76C | 0.22
A15G A45U A64U U67A A77G | 0.16
A15G A45U C50U | 0.19
A15G A45U U48C | 0.55
A15G A45U U51G U58G U69A | 0.15

Variant | self-cleavage
A15G A45U U58A U76C A77G | 0.14
A15G A45U U76A U78C | 0.28
A15G A45U U78A | 0.4
A15G A45U U78C | 0.32
A15G A47G A56G C62A U72C | 0.2
A15G A47G A56U G63A | 0.27
A15G A47G U49C C68G | 0.12
A15G A47G U54C A56U U78A | 0.38
A15G A47G U76C | 0.88
A15G A47U U66C A75G | 0.16
A15G A56G U58C | 0.14
A15G A56G U60G | 0.38
A15G A56G U69A | 0.2
A15G A56G U78C | 0.49
A15G A56U A64U A77G | 0.32
A15G A57G U58A U67C | 0.18
A15G A57G U66C U72C | 0.18
A15G A57G U76C | 1.17
A15G A57U A75G | 0.19
A15G A57U U66C | 0.19
A15G A64G C79A | 1.15
A15G A64G U66C A77G | 0.14
A15G A64G U69A | 0.13
A15G A64U U66C | 0.25

Variant | self-cleavage
A15G A64U U78A U80C | 0.34
A15G A65G U80A | 0.14
A15G A65U U67A U78C | 0.14
A15G A65U U80A | 0.07
A15G A75U U80A | 1.23
A15G C17A A21G U48C A64U U66C U80C | 0.22
A15G C17A A57G U80C | 0.49
A15G C17A U48C | 0.07
A15G C17U A21G U48C | 0.33
A15G C17U A21G U69C | 0.21
A15G C17U U51C A57C | 0.17
A15G C17U U58C A75G | 0.09
A15G C23A U72C U80A | 0.07
A15G C23G A28U U41C U43C | 0.09
A15G C23G U26C G52C U67C | 0.06
A15G C23U A28G A45G | 0.09
A15G C23U A45G A47U U80C | 0.06
A15G C23U U26A A47G U51C A75U | 0.12
A15G C27A C32U U58C | 0.2
A15G C27A G36A U51C A56G U78C | 0.12
A15G C27A G42A A47G U69A | 0.22
A15G C29A A56U | 0.24
A15G C29U A47U U58C | 0.2
